Patent US20240366728A1, “Treatment of Diabetes Mellitus” (Carmot Therapeutics Inc., priority 2023, published 2024)

Key:
[1] = test system: adults with T2D and overweight/obesity; assay: Phase 2 26-week placebo-controlled study in T2DM with overweight/obesity: safety; conditions: 26 weeks
[2] = test system: adults with T2D and overweight/obesity; conditions: in vivo

**Q.** How did the “Fatal TEAEs” value ([1]; CT-868 1.75 mg) turn out when `CCCCCCCCCCCCCCCC(=O)N[C@@H](CCC(=O)NCCCC[C@H](NC(=O)[C@H](CO)NC(=O)[C@@H]1CCCN1C(=O)[C@@H]1CCCN1C(=O)[C@@H]1CCCN1C(=O)[C@H](C)NC(=O)CNC(=O)[C@H](CO)NC(=O)[C@H](CO)NC(=O)[C@@H]1CCCN1C(=O)CNC(=O)CNC(=O)[C@H](C)NC(=O)[C@H](CC(C)C)NC(=O)[C@H](CC(C)C)NC(=O)[C@H](Cc1c[nH]c2ccccc12)NC(=O)[C@H](CC(N)=O)NC(=O)[C@@H](NC(=O)[C@H](Cc1ccccc1)NC(=O)[C@H](CCC(=O)O)NC(=O)C(C)(C)NC(=O)[C@H](C)NC(=O)[C@H](C)NC(=O)[C@H](CCC(N)=O)NC(=O)[C@H](CCCCN)NC(=O)[C@H](CC(=O)O)NC(=O)[C@H](CC(C)C)NC(=O)[C@H](Cc1ccc(O)cc1)NC(=O)[C@@H](NC(=O)[C@H](CO)NC(=O)[C@H](Cc1ccc(O)cc1)NC(=O)[C@H](CC(=O)O)NC(=O)[C@H](CO)NC(=O)[C@@H](NC(=O)[C@H](Cc1ccccc1)NC(=O)[C@@H](NC(=O)CNC(=O)[C@H](CCC(=O)O)NC(=O)CSCC(=O)NCCN1CCCCC1=O)[C@@H](C)O)[C@@H](C)O)[C@@H](C)CC)C(C)C)C(N)=O)C(=O)O` [CT-868] was run?
**A.** Its value is 0 n (%).

**Q.** And the “Fatal TEAEs” value ([1]; CT-868 3.25 mg)?
**A.** The value was 0 n (%).

**Q.** What about the “Fatal TEAEs” value ([1]; CT-868 4 mg) of the same compound?
**A.** The value was 0 n (%).

**Q.** What about the constipation [2] of the same compound?
**A.** Its constipation is 8-20%.

**Q.** What about the diarrhea [2] of the same compound?
**A.** The diarrhea was 37-44%.

**Q.** And the “gastrointestinal (GI)-related AEs” value [2]?
**A.** Its value is 60%.

**Q.** What about the “hypoglycemia (in words)” value [2] of the same compound?
**A.** The value was “No clinically significant hypoglycemia was reported”.

**Q.** And the “mean heart rate increase” value [2]?
**A.** Its value is 1.7±8.8 to 2.3±8.7.

**Q.** What about the nausea [2] of the same compound?
**A.** Its nausea is 16-28%.

**Q.** And the “safety and tolerability (in words)” value [2]?
**A.** Its value is “safe and well-tolerated with no treatment-related discontinuations”.

**Q.** And the vomiting [2]?
**A.** Its vomiting is 8-10%.
